# Source: PubChem BioAssay AID504333 (National Center for Advancing Translational Sciences (NCATS), 2011)
# Screen size: about 360,000 compounds; about 16,000 (4.4%) were called active. The inconclusive results got no clear call from the source; some entries with a clear call stand among them for comparison. Calls come from the whole dose curve; as a rule, active = well fitted inhibition curve with a large enough effect; inconclusive = small, poorly fitted or top-dose-only effect; inactive = no such curve, though single readings can be large or run the other way. A potency beside an inconclusive call is a rough fit, not a confirmed value.
# Target: Bromodomain adjacent to zinc finger domain protein 2B (Homo sapiens) (UniProt Q9UIF8)
# Experiment: qHTS Assay for Inhibitors of BAZ2B; note: nearly all actives have a fitted effect of over 60% in size
# Conditions: AlphaScreen BAZ2B-H3K14Ac peptide displacement; series mostly up to 114 µM
# Summary of the method: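 Multi-concentration screen (max 110 uM) measuring displacement of acetylated histone H3 peptide from BAZ2B by AlphaScreen, using 50 nM protein, 50 nM peptide and 10 ug/mL streptavidin donor plus Ni-chelate acceptor beads.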
# Potency is the fitted concentration of half-maximal effect; tags give direction and shape of the fitted curve.
# Chain of UniProt Q9UIF8 (Q9UIF8 whole entry, looked up, the tested form may be a part): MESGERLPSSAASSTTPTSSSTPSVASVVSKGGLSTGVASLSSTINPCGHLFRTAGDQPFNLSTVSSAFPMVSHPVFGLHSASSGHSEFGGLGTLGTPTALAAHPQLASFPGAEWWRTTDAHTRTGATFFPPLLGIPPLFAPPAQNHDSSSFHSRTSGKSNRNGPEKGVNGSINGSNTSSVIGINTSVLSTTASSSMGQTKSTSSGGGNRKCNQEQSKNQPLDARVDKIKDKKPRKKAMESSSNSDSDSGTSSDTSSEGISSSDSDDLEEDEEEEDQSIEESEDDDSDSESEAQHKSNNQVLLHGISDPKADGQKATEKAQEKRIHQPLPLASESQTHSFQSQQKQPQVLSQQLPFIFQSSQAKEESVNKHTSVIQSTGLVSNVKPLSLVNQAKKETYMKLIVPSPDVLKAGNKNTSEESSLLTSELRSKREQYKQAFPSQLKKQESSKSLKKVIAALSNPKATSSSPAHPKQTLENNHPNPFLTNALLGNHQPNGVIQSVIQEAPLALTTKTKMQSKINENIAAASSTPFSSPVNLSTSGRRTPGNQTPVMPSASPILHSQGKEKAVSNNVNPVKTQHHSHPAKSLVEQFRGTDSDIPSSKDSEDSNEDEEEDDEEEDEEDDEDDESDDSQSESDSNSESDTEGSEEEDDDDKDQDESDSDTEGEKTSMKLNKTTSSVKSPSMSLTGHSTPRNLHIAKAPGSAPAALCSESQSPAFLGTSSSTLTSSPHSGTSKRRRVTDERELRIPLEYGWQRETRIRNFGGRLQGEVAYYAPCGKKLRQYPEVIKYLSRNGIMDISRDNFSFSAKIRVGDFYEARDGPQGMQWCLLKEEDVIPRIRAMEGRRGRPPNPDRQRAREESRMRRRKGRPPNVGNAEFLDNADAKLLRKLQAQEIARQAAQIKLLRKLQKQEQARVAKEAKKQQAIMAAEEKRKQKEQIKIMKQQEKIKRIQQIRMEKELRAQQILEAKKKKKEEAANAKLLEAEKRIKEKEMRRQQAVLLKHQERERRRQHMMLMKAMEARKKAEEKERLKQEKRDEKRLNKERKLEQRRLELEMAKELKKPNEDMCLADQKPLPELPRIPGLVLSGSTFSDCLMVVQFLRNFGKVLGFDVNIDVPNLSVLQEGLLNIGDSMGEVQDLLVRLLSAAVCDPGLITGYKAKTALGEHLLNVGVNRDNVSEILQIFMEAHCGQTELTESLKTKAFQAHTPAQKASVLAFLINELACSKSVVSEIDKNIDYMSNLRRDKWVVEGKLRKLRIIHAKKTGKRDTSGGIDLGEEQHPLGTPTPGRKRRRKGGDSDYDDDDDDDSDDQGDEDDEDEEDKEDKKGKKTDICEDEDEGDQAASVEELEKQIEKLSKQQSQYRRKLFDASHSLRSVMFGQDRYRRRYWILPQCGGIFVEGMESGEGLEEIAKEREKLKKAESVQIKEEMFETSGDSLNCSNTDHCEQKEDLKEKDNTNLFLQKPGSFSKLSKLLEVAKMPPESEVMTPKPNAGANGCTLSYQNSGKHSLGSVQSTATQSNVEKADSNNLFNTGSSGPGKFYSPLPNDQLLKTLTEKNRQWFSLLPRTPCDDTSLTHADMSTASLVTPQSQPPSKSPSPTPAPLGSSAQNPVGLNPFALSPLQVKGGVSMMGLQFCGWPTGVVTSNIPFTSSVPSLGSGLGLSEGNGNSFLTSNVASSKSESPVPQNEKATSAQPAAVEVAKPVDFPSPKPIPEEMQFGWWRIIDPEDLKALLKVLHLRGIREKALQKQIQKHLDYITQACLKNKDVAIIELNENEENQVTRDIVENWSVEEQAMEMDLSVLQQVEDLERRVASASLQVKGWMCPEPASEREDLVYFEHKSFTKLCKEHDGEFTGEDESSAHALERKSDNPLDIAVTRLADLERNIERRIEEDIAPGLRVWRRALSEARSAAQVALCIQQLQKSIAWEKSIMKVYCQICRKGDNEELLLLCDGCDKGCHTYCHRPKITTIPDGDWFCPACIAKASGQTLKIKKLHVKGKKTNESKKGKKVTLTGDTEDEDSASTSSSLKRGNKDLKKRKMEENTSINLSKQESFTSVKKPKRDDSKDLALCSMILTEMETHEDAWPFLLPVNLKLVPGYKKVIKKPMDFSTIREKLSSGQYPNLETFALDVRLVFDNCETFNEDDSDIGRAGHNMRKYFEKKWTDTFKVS
row,SMILES,Potency
1,Cc1c(Cl)cnc(NC(=O)COC(=O)c2ccc(S(=O)(=O)NCc3ccco3)cc2)c1Cl,active: 50.1 µM
2,COc1ccc(Nc2nc(-c3cccnc3)cs2)c(OC)c1,"inconclusive: 79.4 µM [inhibitor, single point]"
3,COc1ccc(OCC(=O)c2c(O)c3ccccc3oc2=O)cc1,"inconclusive: 89.1 µM [inhibitor, single point]"
4,CC(C)C1C(C#N)=C(N)SC(N)=C1C#N,inactive
5,COc1cc(NC(C)C(=O)N2CC(C)OC(C)C2)cc(OC)c1 (stereo not drawn),active: 39.8 µM
6,CC(C)C[C@H](NC(=O)c1nc[nH]c1C(=O)N1CCC(C)CC1)C(=O)OCc1ccccc1,"inconclusive: 79.4 µM [inhibitor, single point]"
7,COc1ccc(OC)c(N2C(=O)[C@@H]3C(c4ccccc4Cl)=NO[C@@H]3C2=O)c1,active: 31.6 µM
8,CC(=O)c1cccc(N(C(=O)CNC(=O)c2ccco2)C(C(=O)NCC2CCCO2)c2ccccc2)c1 (stereo not drawn),inactive
9,COc1ccc(C(=O)Nc2ccc(S(=O)(=O)NC(C)=O)cc2)cc1[N+](=O)[O-],inactive
10,CCOc1ccccc1/C=c1\sc2nc(-c3ccco3)nn2c1=O,active: 50.1 µM
11,COc1ccc(NC(=O)CSc2nccn2Cc2ccc3c(c2)OCO3)cc1,"inconclusive: 79.4 µM [inhibitor, partial curve]"
12,O=C(NCCCn1ccnc1)C(=O)NCC1OCCCN1S(=O)(=O)c1ccccc1 (stereo not drawn),active: 14.1 µM
13,Cc1ccc(S(=O)(=O)N(Cc2ccccc2)c2ccccc2C(=O)NCc2ccco2)cc1,"inconclusive: 56.2 µM [inhibitor, single point]"
14,Cc1cc(-c2n[nH]c(=S)n2/N=C/C=C/c2ccccc2)n[nH]1,"inconclusive: 79.4 µM [inhibitor, single point]"
15,COc1ccc(NC(=O)CCS(=O)(=O)c2ccc3c(c2)oc(=O)n3C)cc1,active: 50.1 µM
16,NC(=O)c1ccc(Cn2c(C(=O)c3cc(Cl)c(N)c(Cl)c3)c3ccccc3[n+]2[O-])cc1,"inconclusive: 39.8 µM [inhibitor, full curve, poor fit]"
17,COc1ccccc1CNC(=O)c1ccccc1NC(=O)C1=C(C)OCCS1,"inconclusive: 44.7 µM [inhibitor, partial curve]"
18,O=C(COC(=O)c1ccc(NS(=O)(=O)c2cccs2)cc1)Nc1nc2c(F)c(F)c(F)cc2s1,"inconclusive: 56.2 µM [inhibitor, partial curve]"
19,O=c1ccc2ccc(Oc3ccc(Cl)cc3[N+](=O)[O-])cc2o1,"inconclusive: 56.2 µM [inhibitor, partial curve]"
20,N#Cc1ccccc1Sc1ccccc1C(=O)NCC(c1ccco1)N1CCCCC1 (stereo not drawn),inactive
21,COc1ccc(NC2CCCN(C(=O)c3cccc(N(C)C)c3)C2)cc1 (stereo not drawn),"inconclusive: 79.4 µM [inhibitor, single point]"
22,COc1ccccc1N1CCN(C(=O)Cn2c(=O)[nH]c3ccsc3c2=O)CC1,"inconclusive: 31.6 µM [inhibitor, single point]"
23,Cc1ccc2c(c1)c(C)c(C)n2CC(O)Cn1nc(C)cc1C (stereo not drawn),inactive
24,CC(C)(C)NC(=O)Cn1c(=O)n(CC(=O)NC(C)(C)C)c2ccccc21,inactive
25,COC(=O)C1=C(O)/C(=C\c2cc(C)n(-c3ccccc3F)c2C)N=C1C,active: 56.2 µM

row,SMILES,Potency
1,CCOC(=O)c1cc(S(=O)(=O)N2CCN(c3ccccc3OC)CC2)cn1C,"inconclusive: 79.4 µM [inhibitor, single point]"
2,O=C(O)/C=C/C(=O)NCc1ccccn1,"inconclusive: 89.1 µM [inhibitor, single point]"
3,CCn1c2ccccc2c2cc(NC(=O)CNC)ccc21,active: 56.2 µM
4,O=C(CNCc1cccc2ccccc12)Nc1ccccc1[N+](=O)[O-],"inconclusive: 28.2 µM [inhibitor, full curve]"
5,Cc1cccc(C(=O)Nc2nnc(-c3cccnc3)o2)c1,active: 50.1 µM
6,CC(C)S(=O)(=O)c1csc(C(=O)NN)c1-n1cccc1,"inconclusive: 89.1 µM [inhibitor, single point]"
7,Cc1ccc(S(=O)(=O)n2nc(C)c(S(=O)(=O)N3CCOCC3)c2C)cc1,"inconclusive: 89.1 µM [inhibitor, single point]"
8,OCCN=C(c1ccccc1)C12CN3CN(CN(C3)C1)C2,inactive
9,COC(=O)Cc1ccc(NC(C)=O)cc1,inactive
10,CC(C)c1ccc(NC2CCCN(C(=O)CN3C(=O)CSC3=O)C2)cc1 (stereo not drawn),"inconclusive: 79.4 µM [inhibitor, single point]"
11,Nc1c(-c2ccccc2Cl)cnn1-c1cccc([N+](=O)[O-])c1,"inconclusive: 89.1 µM [inhibitor, single point]"
12,CCN(CC)c1ccc(NC(=O)c2cccn2-c2nnc(N3CCCCC3)s2)c(C)c1,active: 31.6 µM
13,Cc1c(C#N)c(O)[nH]c(=O)c1N=Nc1ccc(S(N)(=O)=O)cc1,inactive
14,CCOc1ccc2nc(COC(=O)c3ccncc3)c(C(=O)c3ccccc3)[n+]([O-])c2c1,"inconclusive: 89.1 µM [inhibitor, single point]"
15,Cc1ccc(-n2cc(-c3ccccc3)c3c(N4CCCCC4)ncnc32)cc1,inactive
16,O=C(c1ccncc1)c1ccc(NC(=O)c2cccs2)cc1,"inconclusive: 79.4 µM [inhibitor, single point]"
17,c1ccc2[nH]c(SN3CCOCC3)nc2c1,active: 20 µM
18,CCN(CC)C(=O)C1CCCN(Cc2ccc3c(c2)OCO3)C1 (stereo not drawn),"inconclusive: 89.1 µM [inhibitor, single point]"
19,Cc1cccc(C(=O)Nc2cccc(NC(=O)c3ccccc3)c2)c1,"inconclusive: 89.1 µM [inhibitor, single point]"
20,Cc1cccc(NC(=S)c2nc3ccccc3s2)c1,active: 8.91 µM
21,Cc1cc(/C=C(\C#N)C(=O)O)c(C)n1CCC(C)C,"inconclusive: 89.1 µM [inhibitor, single point]"
22,Cc1cc(/C=N/NC(=O)c2ccccc2F)c(C)n1-c1ccccc1,inactive
23,O=C1CCC(=O)N1c1ccc(NCc2ccccc2Cl)c([N+](=O)[O-])c1,"inconclusive: 28.2 µM [inhibitor, single point]"
24,CC1Cc2ccccc2N1C(=S)NC(=O)c1ccc(Cl)cc1Cl (stereo not drawn),"inconclusive: 39.8 µM [inhibitor, full curve]"
25,Cc1ccc(-c2cc(C(=O)Nc3ccc(SC(F)F)cc3)no2)cc1F,"inconclusive: 79.4 µM [inhibitor, single point]"

row,SMILES,Potency
1,COC(=O)c1ccccc1NC(=O)C12CCC(C)(C(=O)O1)C2(C)C (stereo not drawn),inactive
2,Cc1ccc(N2C(=O)[C@@H]3[C@H](C2=O)C2CCCN2[C@@H]3C(=O)c2ccccc2)cc1 (stereo partly drawn),"inconclusive: 89.1 µM [inhibitor, single point]"
3,Cc1ccc(Nc2ncccc2C(N)=O)cc1,inactive
4,COc1cc(NC(=O)c2ccc(C)c(Cl)c2)ccc1NC(=O)c1cc2ccccc2o1,"inconclusive: 89.1 µM [inhibitor, single point]"
5,CCN(CCNC(=O)C1CCC(=O)N1Cc1ccc(C)cc1)c1ccccc1 (stereo not drawn),inactive
6,CC1CN(C(=O)N2CCC(C(=O)NCCCc3ccccc3)CC2)c2cc(Cl)ccc2O1 (stereo not drawn),"inconclusive: 79.4 µM [inhibitor, single point]"
7,O=C(NCCc1ccc(F)cc1)c1ccc(Cl)c(S(=O)(=O)N2CCOCC2)c1,"inconclusive: 56.2 µM [inhibitor, partial curve]"
8,COCc1c(C(=O)N(C)Cc2ccccc2N2CCCC2)oc2ccccc12,"inconclusive: 79.4 µM [inhibitor, partial curve]"
9,C(=N\Nc1nc(-c2ccccc2)cs1)/c1ccncc1,"inconclusive: 79.4 µM [inhibitor, partial curve]"
10,COc1ccc(CCN2CC(C(=O)OCC(=O)N(C)Cc3ccccc3)CC2=O)cc1OC (stereo not drawn),inactive
11,COc1ccc(CC(=O)Nc2nc3c(s2)CC(C)CC3)cc1 (stereo not drawn),inactive
12,CC(=O)c1cc(-c2ccccc2)n(CC(=O)Nc2cccc(C)c2C)c1C,inactive
13,CN(C)CCNC(=O)c1sc2nc(-c3ccccc3)cc(C(F)(F)F)c2c1N,"inconclusive: 70.8 µM [inhibitor, single point]"
14,O=C1CC(Nc2ccc(N3CCOCC3)cc2)C(=O)N1Cc1ccccc1 (stereo not drawn),"inconclusive: 44.7 µM [inhibitor, partial curve]"
15,CCOc1ccc(Br)cc1S(=O)(=O)Nc1ccc(N2CCOCC2)cc1,"inconclusive: 39.8 µM [inhibitor, partial curve]"
16,Cc1nc2ccccc2c(=O)n1/N=C/c1cn(-c2ccccc2)nc1-c1cccs1,"inconclusive: 89.1 µM [inhibitor, single point]"
17,CC1(C)CCc2c([nH]c3ccccc3c2=O)O1,"inconclusive: 89.1 µM [inhibitor, single point]"
18,CS(=O)(=O)N1CCN(c2nc(-c3ccccc3)cs2)CC1,"inconclusive: 89.1 µM [inhibitor, single point]"
19,COc1ccc(CCNC(=O)CCc2c(C)nc3c4c(C)cc(C)nc4nn3c2C)cc1OC,inactive
20,CC(=O)Nc1ccc(SCC(=O)Nc2ccc(Cl)cn2)cc1,"inconclusive: 3.98 µM [inhibitor, single point]"
21,CC1(C)Cc2c(sc3c2c(=N)n(Cc2ccco2)c(=O)n3Cc2ccccc2)CO1,active: 79.4 µM
22,COc1cc(/C=N/n2c(=S)[nH]nc(C)c2=O)cc([N+](=O)[O-])c1O,inactive
23,CC(=O)c1c(C)oc2ccc(N(C(=O)Oc3ccccc3)S(=O)(=O)c3ccc(Cl)cc3)cc12,inactive
